The supplement of paper PMC9446081
The whole screen tested about 39,000 compounds, of which about 220 (0.56%) showed activity. The list shows a part of the results.

What follows are compounds tested on Escherichia coli K-12 BW25113 (assay: relative growth (OD600 normalised to plate interquartile mean) (fraction); higher = less growth inhibition, active = 0.2 or less). Conditions: 50 µM; LB; incubation time: overnight (16-24 h).
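Further: static incubation at 37 °C against the wild-type strain, values averaged over two biological replicates.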

SMILES	relative growth
N#Cc1c(N)n(CCN)c2nc3ccccc3nc12	inactive: 0.962
COC(=O)[C@@H]1CCCC1=O	inactive: 1.03
Cc1ccc(S(=O)(=O)N(C)C[C@H]2OCCCC[C@@H](C)Oc3ccc(NC(=O)Nc4ccc(C(F)(F)F)cc4)cc3C(=O)N([C@H](C)CO)C[C@@H]2C)cc1	inactive: 0.973
C[C@@H]1CCCCO[C@H](CN(C)Cc2ccccc2)[C@@H](C)CN([C@@H](C)CO)C(=O)c2cc(NC(=O)Nc3ccc4c(c3)OCO4)ccc2O1	inactive: 1.02
Cc1ccc(S(=O)(=O)N(C)C[C@@H]2OCCCC[C@@H](C)Oc3ccc(NC(=O)CCC(F)(F)F)cc3C(=O)N([C@@H](C)CO)C[C@H]2C)cc1	inactive: 1.04
CNC(=O)C[C@@H]1CC[C@H]2[C@@H](COC[C@@H](O)CN2C(=O)c2ccc3c(c2)OCO3)O1	inactive: 1.02
NC1(C(=O)O)CCC1	inactive: 0.982
CCOC(=O)[C@H]1C/C=C/C[C@H](C(=O)OCC)C(=O)O[C@H]2[C@@H](OC)O[C@H](CO)[C@@H](OC(=O)c3ccc(Br)cc3)[C@@H]2OC1=O	inactive: 0.975
C[C@@H]1CN([C@@H](C)CO)S(=O)(=O)c2ccc(-c3ccncc3)cc2O[C@@H]1CN(C)C(=O)c1ccc2c(c1)OCO2	inactive: 0.971
C[C@@H]1CN([C@H](C)CO)C(=O)c2cccc(NC(=O)C3CC3)c2O[C@H]1CN(C)Cc1ccc(-c2ccccc2)cc1	inactive: 1
C=CCOC(=O)[C@H]1[C@@H]2C(=O)O[C@@H](c3ccccc3)[C@@H](c3ccccc3)N2[C@@H](c2ccc(OCCOC(=O)[C@@H]3C[C@@H]4C(=O)N[C@@H](CCCCNC(C)=O)C(=O)N4[C@@H]3c3ccc(O)cc3)cc2)[C@]12C(=O)Nc1ccccc12	inactive: 1.05
C[C@@H]1CCCCO[C@H](CN(C)C(=O)c2ccncc2)[C@H](C)CN([C@H](C)CO)C(=O)c2cc(NC(=O)C3CCCCC3)ccc2O1	inactive: 0.986
C[C@@H]1CN([C@H](C)CO)C(=O)Cc2cc(N(C)C)ccc2O[C@@H]1CN(C)C(=O)Nc1ccc2c(c1)OCO2	inactive: 0.986
C[C@H](CO)N1C[C@H](C)[C@H](CN(C)C(=O)Nc2ccc3c(c2)OCO3)OCCCC[C@H](C)Oc2ccc(NC(=O)c3ccncc3)cc2C1=O	inactive: 0.98
CC(C)NC(=O)Nc1ccc2c(c1)C(=O)N([C@H](C)CO)C[C@@H](C)[C@@H](CN(C)S(=O)(=O)c1ccccc1)O2	inactive: 0.996
Cc1noc(C)c1NC(=O)Nc1ccc2c(c1)CC(=O)N([C@@H](C)CO)C[C@H](C)[C@@H](CN(C)Cc1ccc(C(=O)Nc3ccccc3N)cc1)O2	inactive: 1.01
CC1(C)CCC(CN2CCN(c3ccc(C(=O)NS(=O)(=O)c4ccc(NCC5CCOCC5)c([N+](=O)[O-])c4)c(Oc4cnc5[nH]ccc5c4)c3)CC2)=C(c2ccc(Cl)cc2)C1	inactive: 0.99
C[C@@H]1CN([C@@H](C)CO)C(=O)c2cc(C#Cc3ccccc3)cnc2O[C@H]1CN(C)S(=O)(=O)c1ccccc1F	inactive: 1.01
O=C(C[C@H]1CC[C@@H]2[C@H](COC[C@H](O)CN2C(=O)Nc2ccc(Cl)c(Cl)c2)O1)NCc1ccncc1	inactive: 0.968

SMILES	relative growth
COc1ccc(NC(=O)Nc2cccc3c2O[C@@H](CN(C)Cc2ccc(-c4ccccc4)cc2)[C@@H](C)CN([C@H](C)CO)C3=O)cc1	inactive: 0.993
CC(C)c1ccc(N2C=Nc3ccc(C(C)C)cc3C2)cc1	inactive: 0.982
C[C@H]1CN([C@@H](C)CO)C(=O)c2cc(NC(=O)Nc3ccc(C(F)(F)F)cc3)ccc2O[C@H]1CN(C)Cc1ccc(-c2ccccc2)cc1	inactive: 1.01
NNC(=O)c1ccncc1	inactive: 1.04
CO[C@@H](CN(C)S(=O)(=O)c1ccc(Cl)cc1)[C@H](C)CN([C@@H](C)CO)S(=O)(=O)c1cccc(Cl)c1	inactive: 1.01
C[C@@H]1CCCCO[C@@H](CN(C)C)[C@H](C)CN([C@H](C)CO)C(=O)c2cc(NS(=O)(=O)c3cn(C)cn3)ccc2O1	inactive: 0.95
CC(C)NC(=O)N(C)C[C@H]1Oc2cc(C#Cc3cccc(F)c3)ccc2S(=O)(=O)N([C@H](C)CO)C[C@H]1C	inactive: 0.984
CC(C)NC(=O)N(C)C[C@@H]1Oc2ccc(NS(=O)(=O)c3ccc(Cl)cc3)cc2CC(=O)N([C@H](C)CO)C[C@@H]1C	inactive: 0.998
C[C@@H](Oc1ccccc1Cl)c1nc2ccc(Cl)cc2[nH]1	inactive: 0.958
Cc1ccc(S(=O)(=O)N(C)C[C@H]2Oc3ccc(NC(=O)Nc4cccc5ccccc45)cc3CC(=O)N([C@H](C)CO)C[C@@H]2C)cc1	inactive: 0.999
C[C@H](CO)N1C[C@H](C)[C@H](CN(C)S(=O)(=O)c2cccs2)Oc2ncc(C#CC(C)(C)O)cc2C1=O	inactive: 1.01
O=C(N[C@@H](c1ccccc1)c1ccc2ccccc2n1)C1CCN(C(=O)NC(c2ccccc2)c2ccccc2)CC1	inactive: 1.02
COc1ccc(S(=O)(=O)N(C)C[C@@H]2Oc3c(NC(=O)Nc4cccc5ccccc45)cccc3C(=O)N([C@@H](C)CO)C[C@H]2C)cc1Cl	inactive: 1
C[C@H]1CN([C@@H](C)CO)C(=O)CCCn2cc(nn2)CO[C@@H]1CN(C)C(=O)Nc1ccc(C(F)(F)F)cc1	inactive: 0.957
CN1C(=O)c2cc(NS(C)(=O)=O)ccc2OC[C@H]2O[C@@H](CC(=O)N3CCOCC3)CC[C@@H]21	inactive: 0.998
C[C@@H]1CN([C@H](C)CO)C(=O)c2cc(NS(=O)(=O)c3ccccc3)ccc2O[C@H]1CN(C)S(=O)(=O)c1cccs1	inactive: 1
Cn1cnnc1Sc1c([N+](=O)[O-])ncn1C	inactive: 0.894
C[C@@H]1CCCCO[C@H](CN(C)C(=O)Nc2ccccc2)[C@@H](C)CN([C@H](C)CO)C(=O)c2cc(NC(=O)c3ccncc3)ccc2O1	inactive: 0.978
C[C@@H]1CCCCO[C@@H](CN(C)C(=O)Nc2ccccc2)[C@@H](C)CN([C@@H](C)CO)C(=O)c2cc(NC(=O)Nc3ccccc3)ccc2O1	inactive: 1.05
